Drawing on patent US20250051472A1 (Dana-Farber, published 2025), this text covers Kd and EC50 for one molecule.

The target in test [1] is T1, PNGase treated recombinant human BCAM (human, UniProt P50895 32-547, deglycosylated with PNGase).
T1 chain: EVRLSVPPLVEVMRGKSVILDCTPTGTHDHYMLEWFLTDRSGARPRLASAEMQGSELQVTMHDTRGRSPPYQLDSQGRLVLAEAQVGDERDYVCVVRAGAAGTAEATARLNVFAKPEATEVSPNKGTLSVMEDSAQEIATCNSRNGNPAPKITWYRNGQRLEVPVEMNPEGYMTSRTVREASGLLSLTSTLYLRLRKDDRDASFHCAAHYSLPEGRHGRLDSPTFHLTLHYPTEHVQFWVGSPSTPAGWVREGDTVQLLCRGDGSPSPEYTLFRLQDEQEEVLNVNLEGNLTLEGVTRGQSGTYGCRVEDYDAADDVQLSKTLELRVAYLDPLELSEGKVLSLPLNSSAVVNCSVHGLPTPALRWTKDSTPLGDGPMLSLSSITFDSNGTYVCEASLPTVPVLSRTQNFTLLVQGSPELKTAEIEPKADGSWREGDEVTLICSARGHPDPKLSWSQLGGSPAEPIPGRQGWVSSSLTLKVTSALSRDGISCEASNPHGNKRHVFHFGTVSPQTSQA
The experiment in a line: ELISA; deglycosylated.

For a further test, the target named is T2, human BCAM on cells (human, UniProt P50895 32-628).
T2 construct: whole, on cells; also called full length BCAM; Basal Cell Adhesion Molecule
T2 sequence (looked up): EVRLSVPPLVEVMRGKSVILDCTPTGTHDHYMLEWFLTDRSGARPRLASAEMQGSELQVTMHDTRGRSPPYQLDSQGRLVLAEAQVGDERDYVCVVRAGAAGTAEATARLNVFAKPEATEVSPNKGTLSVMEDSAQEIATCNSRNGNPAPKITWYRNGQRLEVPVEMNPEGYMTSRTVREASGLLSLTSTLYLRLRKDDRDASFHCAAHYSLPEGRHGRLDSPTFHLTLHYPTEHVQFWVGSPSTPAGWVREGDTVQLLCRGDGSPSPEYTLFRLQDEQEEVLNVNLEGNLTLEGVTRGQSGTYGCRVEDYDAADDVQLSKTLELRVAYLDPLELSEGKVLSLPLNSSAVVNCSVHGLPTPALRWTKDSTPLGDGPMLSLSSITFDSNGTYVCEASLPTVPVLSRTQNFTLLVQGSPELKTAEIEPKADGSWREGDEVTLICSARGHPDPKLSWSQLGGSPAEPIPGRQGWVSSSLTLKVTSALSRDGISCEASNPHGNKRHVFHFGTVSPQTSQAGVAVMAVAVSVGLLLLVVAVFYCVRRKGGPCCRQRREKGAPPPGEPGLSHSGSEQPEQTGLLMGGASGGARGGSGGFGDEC
The experiment in a line: flow cytometry binding curve on live Kuramochi cells.

The target in test [2] is T1, PNGase treated recombinant human BCAM. The test can be described thus: ELISA; deglycosylated.

Like-named read-outs stand apart in the source and are kept apart here.

B1: 6N2_22-hIgG1-Fc (full α-BCAM VHH-hIgG1-Fc fusion construct) (Fc fusion)
chain: QVQLVESGGGLVQPGGSLRLSCAASGFTFSSYAMSWVRQAPGKGPEWVSAINSGGGSTSYADSVKGRFTISRDNAKNTLYLQMNSLKPEDTAVYYCAKSWTVRIGQIYHHPTDYWGQGTQVTVSS[human IgG1 Fc left out here]
notes: also called a-BCAM VHH (6N2_22); anti-BCAM VHH
As to B1, the Kd in test [1] and in test [2] was roughly 3.5 nM in each case. In the test with human BCAM on cells, this molecule yielded an EC50 of 7.2 nM.
